Marks after values point to notes of the source that are not given here.
Experiment: pH-stability of SPL026 (DMT fumarate) 2.5 mg/mL in 40 mM Britton-Robinson buffer (pH, HPLC assay, related substances)
[1] = nominal pH 4.0, Day 7: 7 days storage at 40° C.
[2] = nominal pH 4.0, Day 17: 10 days at 40° C. followed by 7 days at 50° C.
[3] = nominal pH 5.0, Day 7: 7 days storage at 40° C.
[4] = nominal pH 6.0, Day 7: 7 days storage at 40° C.
[5] = nominal pH 6.5, Day 7: 7 days storage at 40° C.
[6] = nominal pH 7, Day 17: 10 days storage at 40° C., 7 days storage at 50° C.
[7] = nominal pH 7 UV light (200 watt hours UVA, 0.6 million luxhours)
[8] = nominal pH 7.5, Day 17: 10 days storage at 40° C., 7 days storage at 50° C.
[9] = nominal pH 8.0, Day 7: 7 days storage at 40° C.
[10] = nominal pH 8, Day 17: 10 days storage at 40° C., 7 days storage at 50° C.

## CN(C)CCc1c[nH]c2ccccc12.O=C(O)/C=C/C(=O)O [SPL026, N,N-dimethyltryptamine (DMT) fumarate salt]
[1]
  Concentration (assay): 2570 µg/mL
  Total related substances: ND (ND—<0.02 area of total peak area)
[2]
  Concentration (assay): 2520 µg/mL
  Total related substances: ND (ND—<0.02 area of total peak area)
Nominal pH 4.0, Initial
  Concentration (assay): 2470 µg/mL
  Total related substances: ND (ND—<0.02 area of total peak area)
[3]
  Concentration (assay): 2480 µg/mL
  Total related substances: ND (ND—<0.02 area of total peak area)
Nominal pH 5.0, Day 17: 10 days at 40° C. followed by 7 days at 50° C.
  Concentration (assay): 2520 µg/mL
Nominal pH 5, Day 17: 10 days storage at 40° C., 7 days storage at 50° C.
  individual related substance, percentage area of total peak area, relative retention time 1.56: 0.07%
Nominal pH 5.0, Initial
  Concentration (assay): 2500 µg/mL
  Total related substances: ND (ND—<0.02 area of total peak area)
[4]
  Concentration (assay): 2560 µg/mL
  Total related substances: ND (ND—<0.02 area of total peak area)
Nominal pH 6.0, Day 17: 10 days at 40° C. followed by 7 days at 50° C.
  Concentration (assay): 2480 µg/mL
Nominal pH 6, Day 17: 10 days storage at 40° C., 7 days storage at 50° C.
  individual related substance, percentage area of total peak area, relative retention time 1.56: 0.09%
Nominal pH 6.0, Initial
  Concentration (assay): 2510 µg/mL
  Total related substances: ND (ND—<0.02 area of total peak area)
[5]
  Concentration (assay): 2590 µg/mL
  Total related substances: ND (ND—<0.02 area of total peak area)
Nominal pH 6.5, Day 17: 10 days at 40° C. followed by 7 days at 50° C.
  Concentration (assay): 2510 µg/mL
Nominal pH 6.5, Day 17: 10 days storage at 40° C., 7 days storage at 50° C.
  individual related substance, percentage area of total peak area, relative retention time 1.56: 0.10%
Nominal pH 6.5, Initial
  Concentration (assay): 2490 µg/mL
  Total related substances: ND (ND—<0.02 area of total peak area)
Nominal pH 6.5 with N2 (sparged with nitrogen), Day 17: 10 days storage at 40° C., 7 days storage at 50° C.
  individual related substance, percentage area of total peak area, relative retention time 1.56: 0.05%
Nominal pH 7.0, Day 7: 7 days storage at 40° C.
  Total related substances: ND (ND—<0.02 area of total peak area)
[6]
  individual related substance, percentage area of total peak area, relative retention time 0.73: 0.09%
  individual related substance, percentage area of total peak area, relative retention time 0.91: 0.05%
Nominal pH 7.0, Initial
  Total related substances: ND (ND—<0.02 area of total peak area)
Nominal pH 7.0 UV Light, Initial
  Total related substances: ND (ND—<0.02 area of total peak area)
Nominal pH 7.0 UV Light, on completion of light stressing (200 watt hours UVA, 0.6 million luxhours)
  Total related substances: 1.68^a %
[7]
  individual related substance, percentage area of total peak area, relative retention time 0.54: 0.05%
  individual related substance, percentage area of total peak area, relative retention time 0.77: 0.06%
  individual related substance, percentage area of total peak area, relative retention time 0.80: 0.07%
  individual related substance, percentage area of total peak area, relative retention time 1.56: 0.10%
Nominal pH 7.0 sparged N2, Day 7: 7 days storage at 40° C.
  Total related substances: ND (ND—<0.02 area of total peak area)
Nominal pH 7.0 sparged N2, Initial
  Total related substances: ND (ND—<0.02 area of total peak area)
Nominal pH 7.5, Day 7: 7 days storage at 40° C.
  Total related substances: ND (ND—<0.02 area of total peak area)
[8]
  individual related substance, percentage area of total peak area, relative retention time 0.91: 0.07%
  individual related substance, percentage area of total peak area, relative retention time 1.56: 0.09%
Nominal pH 7.5, Initial
  Total related substances: ND (ND—<0.02 area of total peak area)
[9]
  Concentration (assay): 2490 µg/mL
  Total related substances: ND (ND—<0.02 area of total peak area)
Nominal pH 8.0, Day 17: 10 days at 40° C. followed by 7 days at 50° C.
  Concentration (assay): 2420 µg/mL
[10]
  individual related substance, percentage area of total peak area, relative retention time 0.91: 0.09%
  individual related substance, percentage area of total peak area, relative retention time 0.95: 0.05%
  individual related substance, percentage area of total peak area, relative retention time 1.56: 0.07%
Nominal pH 8.0, Initial
  Total related substances: ND (ND—<0.02 area of total peak area)
Nominal pH 9.0, Day 7: 7 days storage at 40° C.
  Concentration (assay): 2410 µg/mL
Nominal pH 9.0, Day 17: 10 days at 40° C. followed by 7 days at 50° C.
  Concentration (assay): 2460 µg/mL
Nominal pH 9.0, Initial
  Concentration (assay): 2470 µg/mL
  Total related substances: ND (ND—<0.02 area of total peak area)

— US20250032450A1, “[…] INHALABLE FORMULATIONS” (Cybin UK Ltd., priority 2021, published 2025)
